Assay results as given in the RNAGym collection of RNA variant scans (doi:10.1073/pnas.2313332121).
Variants at the background level are over-represented here.

B1: TPR 5TU (parent)
chain: GGAUCUUCUCGAUCUAACAAAAAAGACAAAUCUGCCACAAAGCUUGAGAGCAUCUUCGGAUGCAGAGGCGGCAGCCUUCGGUGGCGCGAUAGCGCCAACGUUCUCAACUAUGACACGCAAAACGCGUGCUCCGUUGAAUGGAGUUUAUCAUG

Variants of: B1
Assay: polymerase ribozyme fitness, log enrichment relative to wild type (log ratio); higher = more active; in vitro selection for triplet polymerase activity
Procedure, shortened: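 Streptavidin-bead capture of gel-excised extended constructs, followed by RT-PCR, closed a single triplicate in vitro selection round. That round began by annealing PCR-built, transcribed mutant libraries of each subunit of a heterodimeric triplet polymerase ribozyme with a biotinylated primer, the partner subunit and triplets, then incubating them frozen at −7 °C. After Illumina sequencing of inputs and outputs, genotypes needed ≥10 input reads and ≥1 read per output. Fitness is the base-2 logarithm of genotype enrichment over wild-type enrichment, using inverse-variance-weighted replicate averages.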

A17G G80C A91G and A17U A20U A73C G86A A89G C131A cannot be ordered by “polymerase ribozyme fitness (log ratio)” value: at most -4.2 for the first, at most -4.2 for the second.

A16U U77A G92C C96U and A17G G25C U33G A52U U77G G81U C105G cannot be ordered by “polymerase ribozyme fitness (log ratio)” value: at most -4.2 for the first, at most -4.2 for the second.

C18U G34U G59C G68A G81A G141A and A17U U31G C32A A150G cannot be ordered by “polymerase ribozyme fitness (log ratio)” value: at most -4.2 for the first, at most -4.2 for the second.

A17C A20U A21U A24G G80A C108A and A17U U77C cannot be ordered by “polymerase ribozyme fitness (log ratio)” value: at most -4.2 for the first, at most -4.2 for the second.

C18U A39G U53C C57G C75A U139G A150C and A16U U77A G84A U102C U144C U148A C149G cannot be ordered by “polymerase ribozyme fitness (log ratio)” value: at most -4.2 for the first, at most -4.2 for the second.

First: C18G A37G A66G G68C C93A G128A
Second: C18G A40U
The “polymerase ribozyme fitness (log ratio)” value of the first is lower: at most -4.2 for the first, 0.0147 for the second.

A17C G58A U102G A120G G128A and C18U A24G U56G A89C C96U A106G C149G cannot be ordered by “polymerase ribozyme fitness (log ratio)” value: at most -4.2 for the first, at most -4.2 for the second.

A17U G42A C43G U45G A49G G74C U82A and C18G G83C C85U C96G A115C C116G U134A cannot be ordered by “polymerase ribozyme fitness (log ratio)” value: at most -4.2 for the first, at most -4.2 for the second.

C18U C54G U111G and C18U A37C G68A A107U C125A G140C cannot be ordered by “polymerase ribozyme fitness (log ratio)” value: at most -4.2 for the first, at most -4.2 for the second.

C18U G88C and A17U A39C A66C U90G cannot be ordered by “polymerase ribozyme fitness (log ratio)” value: at most -4.2 for the first, at most -4.2 for the second.

A17U A37G A73U C93A C108U A142U and C18U A20G C54A C93G A150C cannot be ordered by “polymerase ribozyme fitness (log ratio)” value: at most -4.2 for the first, at most -4.2 for the second.

Going from C18G A37G C57A G58A U61A G83A C87U A97C A115G to C18U A40C C93A, the “polymerase ribozyme fitness (log ratio)” value rises from at most -4.2 to -2.24.

Going from C18U G83A to A17G C96A A97G U101C U148C, the “polymerase ribozyme fitness (log ratio)” value falls from -0.637 to -3.67.

C18G A28C G68U C96G C105G C114U G141A and A17G A21G G48C C57U C93A U101G C129U C132U G140A cannot be ordered by “polymerase ribozyme fitness (log ratio)” value: at most -4.2 for the first, at most -4.2 for the second.

C18G C87A A122G G133A and A17U A52U C57U C96U A98U C103G A121C G140C cannot be ordered by “polymerase ribozyme fitness (log ratio)” value: at most -4.2 for the first, at most -4.2 for the second.

A17G C18G A40C C85G A106U G124U C125U and C18U C36A A66G G81U C85U U101C cannot be ordered by “polymerase ribozyme fitness (log ratio)” value: at most -4.2 for the first, at most -4.2 for the second.

C18A A28G A30C G46A G74C and A17U G50A A73G C87A C103G C105G cannot be ordered by “polymerase ribozyme fitness (log ratio)” value: at most -4.2 for the first, at most -4.2 for the second.

C18U A24U G58A U61C G74U C96U G136A and A17C C35A A47C C51G G74U C75A cannot be ordered by “polymerase ribozyme fitness (log ratio)” value: at most -4.2 for the first, at most -4.2 for the second.

A17U A23C A24C C38U U56A G59A C79U G84A A107C and A17C C18G A26U G42A C51A C85U C108U cannot be ordered by “polymerase ribozyme fitness (log ratio)” value: at most -4.2 for the first, at most -4.2 for the second.

A17G A21C A24C A26G C27G C87A C103G C108A A122U U134G and C18G C51A G71U G86U A113U A142C U144A cannot be ordered by “polymerase ribozyme fitness (log ratio)” value: at most -4.2 for the first, at most -4.2 for the second.

Going from C18G U61A to C18U A28G A40C G50A A52U U77A C93U A98G G117A, the “polymerase ribozyme fitness (log ratio)” value falls from -0.567 to at most -4.2.

A17U A39G G50C A52C C96U C118U and A17U G86C C87U cannot be ordered by “polymerase ribozyme fitness (log ratio)” value: at most -4.2 for the first, at most -4.2 for the second.

A17G G67C A106C G128U and C18G A23U C85G cannot be ordered by “polymerase ribozyme fitness (log ratio)” value: at most -4.2 for the first, at most -4.2 for the second.

Compared with A17G C95U G141A, C18U A106G G133U is lower in “polymerase ribozyme fitness (log ratio)” value: 0.672 for the first, at most -4.2 for the second.

C18U C38U A39C G92U C103U and A17U G50C G68C C85G G94A A106U C123U U134A U135A cannot be ordered by “polymerase ribozyme fitness (log ratio)” value: at most -4.2 for the first, at most -4.2 for the second.

A17U C57U C79G C85G A91G A97C A122C and C18G A24U U33A G124A U135A cannot be ordered by “polymerase ribozyme fitness (log ratio)” value: at most -4.2 for the first, at most -4.2 for the second.

A17U G65C A89U C93G G112C and C18A A21G U33G C36A G50A U53A A91U G92A A113U G133A cannot be ordered by “polymerase ribozyme fitness (log ratio)” value: at most -4.2 for the first, at most -4.2 for the second.

A17U G42A G58A G83A G94U C103G A120U A121C and A17U U31C G50A A64U C69A C99U cannot be ordered by “polymerase ribozyme fitness (log ratio)” value: at most -4.2 for the first, at most -4.2 for the second.

A17C G48A A49C G86C G100C and C18G A64C U82G A137G cannot be ordered by “polymerase ribozyme fitness (log ratio)” value: at most -4.2 for the first, at most -4.2 for the second.

C18G A23U G59A G68U C87A G128C and C18G C27G C38U U61A A64C C87G G140C U145G cannot be ordered by “polymerase ribozyme fitness (log ratio)” value: at most -4.2 for the first, at most -4.2 for the second.

A17G G34A U56A G59A U78G and C18U A21C A23C G48U G86A A89U cannot be ordered by “polymerase ribozyme fitness (log ratio)” value: at most -4.2 for the first, at most -4.2 for the second.

C18U C87G C99A A137C and A17U C36U G46C U90C C95G C103U C116A cannot be ordered by “polymerase ribozyme fitness (log ratio)” value: at most -4.2 for the first, at most -4.2 for the second.

A17C A47G C79A G81C G92C and C18G A24U C96G U104G A113U C116U cannot be ordered by “polymerase ribozyme fitness (log ratio)” value: at most -4.2 for the first, at most -4.2 for the second.

A17G G42C C43A C85A G143U and A17U A47U U139C cannot be ordered by “polymerase ribozyme fitness (log ratio)” value: at most -4.2 for the first, at most -4.2 for the second.

A17C C38G C75G G84U C103G G124C and C18U A30C U56A U148G cannot be ordered by “polymerase ribozyme fitness (log ratio)” value: at most -4.2 for the first, at most -4.2 for the second.

First: A17U A37G U82A U144A
Second: A17C G58C G100C A106U
The “polymerase ribozyme fitness (log ratio)” value of the first is higher: -2.56 for the first, at most -4.2 for the second.

Compared with A17C U55A U56A C85G A115G, A17G C54U G58A A60C U61G C79A G92U U127G is lower in “polymerase ribozyme fitness (log ratio)” value: -3.1 for the first, at most -4.2 for the second.

Compared with A17G G48C G94A C95U, A17G C96G is higher in “polymerase ribozyme fitness (log ratio)” value: -3.29 for the first, -1.29 for the second.

Going from A17G C96U to C18A A23C A49C C69U U78G G88A C96U C149A, the “polymerase ribozyme fitness (log ratio)” value falls from 0.456 to at most -4.2.

First: C18U G94A
Second: C18G U78A G83A C118U
The “polymerase ribozyme fitness (log ratio)” value of the first is higher: -1.37 for the first, at most -4.2 for the second.

A17U G100A A120C A150U and A17C G62U A98U G136U G140U cannot be ordered by “polymerase ribozyme fitness (log ratio)” value: at most -4.2 for the first, at most -4.2 for the second.

In the case of C18G G71C C76A G88A G94A A113G A119U C129U, the “polymerase ribozyme fitness (log ratio)” value is reported as at most -4.2.
